Laboratory results as given in paper PMC6101033 (Neuron, 2017).

Test system: CA1 pyramidal neurons (Schaffer collateral-CA1 synapses)
Assay: LTP in hippocampal slices of 3xTG-AD mice
Details: Y27632 1μM; fEPSC 55–60 min; p<0.001 vs 3xTG-AD

C[C@@H](N)[C@H]1CC[C@H](C(=O)Nc2ccncc2)CC1 [Y27632]
LTP deficit in 3xTG-AD mice: reverses LTP deficits in an AD mouse model
